The values below come from the supplement of paper PMC10126150.

Sequences with one replicate were seen in a single cluster, so their values are uncertain.

The subject of this data set is ATP. The data set can be described thus: switch fluorescence ratio, 500 uM ATP over buffer (Cy3 cluster intensity, sum of 5 cycles each) (fold (ratio)); higher = stronger signal-on switching upon ATP binding; sequences stand for … in TCGTCGGCAGCGTCAGATGTGTATAAGAGACAGTTTTTTTTTTTTTTTTTTTTTTTTT…TC. Conditions: aptamer strand: ATP DNA aptamer (quencher-CACCTGGGGGAGTATTGCGGAGGAAGG + anchor), 100 nM annealed; ATP concentration: 500 uM; one replicate. Put shortly: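 Per cluster, summed Cy3 intensity from the target cycles was divided by that from the buffer cycles to give the fluorescence ratio, then averaged per switch-domain sequence. Clusters outside 100-1000 RFU were excluded. The Cy3-labelled switching-strand clusters, on a modified Illumina MiSeq flow-cell, were annealed to 100 nM quencher-labelled ATP aptamer and imaged in selection buffer, then after 15 min with 500 uM ATP at 22 °C, for five cycles with NaOH stripping and re-annealing between them.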
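Also: ATP exposure 15 min at 22 °C before imaging.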

Turning to CGCCGCGTTC, the switch fluorescence ratio worked out at 3.93.
As for GGAGATAAG, the switch fluorescence ratio turned out to be 1.01.
For GTTTTTTTAC, the switch fluorescence ratio was found to be 1.07.
Under AGGTCCCAGG stands 2.47; under TTCTTAACAC, 0.973.
For the sequence CTCCCAAGGT, the switch fluorescence ratio amounted to 2.71.
Under GCTACCTCTT stands 1; under CCATTAAGTT, 1.02; under GTAGGATTTA, 0.946.
Under AGTAAGAAGA stands 1.02.
Regarding GAAACGTACG, the switch fluorescence ratio is 1.21.
Take CTCGGTAAGT: the switch fluorescence ratio was found to be 1.01.
In the case of GGTGTTGCAG, the switch fluorescence ratio turned out to be 0.962.
As for CGCCTGCCAC, the switch fluorescence ratio came out at 1.39.
Under TACCGTACGG stands 1.04; under GGTATCTTTC, 0.976; under TCAGGTAGGA, 0.994.
Take GTAAATGATA: the switch fluorescence ratio came out at 1.03.
Under CGGGCTGTAT stands 1.01.
Under GTTACCTTGG stands 1.01; under CGAAAAACTC, 1.72; under AAACGATCCC, 0.942.
Under GGAGTGTACA stands 0.99; under CATGCGCGAA, 1.72; under GCTTCTATAT, 1.02.
For the sequence ATCGTGCATC, the switch fluorescence ratio was found to be 1.01.
Under AGCGTGACTC stands 1.17; under AAGTGGGCGG, 1; under AGCGTCATA, 1.01.
For the sequence AGACGACAAA, the switch fluorescence ratio is 1.15.
Under AAGTCCGGTG stands 1.05; under GCTAGGTTCG, 0.947; under GGAATAAGGC, 1.07.
Take TCCTTCGAAT: the switch fluorescence ratio was 1.16.
For ATTTGTTTGC, the switch fluorescence ratio worked out at 1.04.
Under GACATAATTC stands 1.06.
Consider GTTACAAAAA, for which the switch fluorescence ratio amounted to 1.09.
Under TGTTGTAGGT stands 0.902; under CGTGAAACTT, 1.01; under GTTACAACTA, 1.06.
Under AAAAGAGAGT stands 0.99; under GGATTTTGAT, 0.973.
For CTAATCACGT, the switch fluorescence ratio came out at 1.02.
Under ACGATGTTGC stands 1.04; under ACATACATCC, 1.27; under AACCAGCA, 1.06.
AAAGATTTCC: the switch fluorescence ratio stood at 1.05.
CAACCCCTTC: the switch fluorescence ratio was 1.09.
Under TGGTGTA stands 1.03; under CTAATGGTGT, 1.03; under GATTGCTGTT, 1.03.
For AGCCCGTAAC, the switch fluorescence ratio came to 1.1.
In the case of CGACCACTCA, the switch fluorescence ratio was found to be 1.3.
For the sequence AGTCTCTATG, the switch fluorescence ratio came to 1.02.
With ATATGAGGG, the switch fluorescence ratio stood at 1.
For the sequence AGATTCCCTT, the switch fluorescence ratio came out at 0.971.
Under AGGTAGATAC stands 1.1; under CATAGACATG, 0.983; under TTGTGGACC, 0.957.
Under GGTGTCCGCG stands 1.01.
Under TCGTTCAAGG stands 1.01; under GGTAACATTG, 0.995; under ATTCGTGTGG, 1.05.
Consider TGGTGGACGA, for which the switch fluorescence ratio worked out at 1.
Under CAAGGTCAAA stands 1.04.
Regarding ACGCGGTTAT, the switch fluorescence ratio worked out at 0.984.
Under GGGCTTTGAA stands 1; under GTCTGCGGCG, 1.03.
Under TTAAGCTTTG stands 0.95.
Under ACGATCCCCG stands 1.44; under GTTCGAACCT, 1.07.
Turning to AAAGGACTAT, the switch fluorescence ratio is 0.958.
With TCGATACCTT, the switch fluorescence ratio was found to be 1.12.
Take GGGACAGGA: the switch fluorescence ratio turned out to be 0.941.
Under GAACTAACC stands 1.09; under GGCCCTAGCA, 1.01.
For GGGGGTGCGC, the switch fluorescence ratio worked out at 1.01.
Under AAATAAGTGG stands 0.969; under CTGAGGGCTT, 1.01.
